Results reported in PubChem BioAssay AID1159614 (National Center for Advancing Translational Sciences (NCATS), 2016).
In all, about 45,000 compounds went through this assay and about 65 (0.1%) were called active. Calls follow the shape of the dose curve; as a rule, active = well fitted activation curve with a large enough effect; inconclusive = small, poorly fitted or top-dose-only effect; inactive = no such curve, though single readings can be large or run the other way. Some of the results follow.

The molecules below were run against Galactocerebrosidase (Homo sapiens) (UniProt P54803) (assay: A Novel Cell-Based Assay to Identify Small Molecules for B -Galactocerebrosidase). Details: 145M-Twi-hGALC-G270D cells (Twitcher mouse brain line with human GALC G270D), HMU-beta-Gal fluorescence, 48 h; series mostly up to 57.5 µM; activation: at the top concentration.
Summary of the method: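 Fluorogenic HMU-b-Gal hydrolysis (0.1 mM final, pH 5.2 citrate-phosphate with 1 mg/mL sodium taurocholate; carbonate stop buffer) measures mutant GALC activity after compound treatment of live 145M-Twi Twitcher brain cells stably carrying human GALC-G270D, with wild-type GALC line alongside; activation sought.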
Also: 0% is about no effect; nearly all actives have a fitted effect of over 65% in size.

UniProt P54803, sequence (P54803 whole entry, looked up): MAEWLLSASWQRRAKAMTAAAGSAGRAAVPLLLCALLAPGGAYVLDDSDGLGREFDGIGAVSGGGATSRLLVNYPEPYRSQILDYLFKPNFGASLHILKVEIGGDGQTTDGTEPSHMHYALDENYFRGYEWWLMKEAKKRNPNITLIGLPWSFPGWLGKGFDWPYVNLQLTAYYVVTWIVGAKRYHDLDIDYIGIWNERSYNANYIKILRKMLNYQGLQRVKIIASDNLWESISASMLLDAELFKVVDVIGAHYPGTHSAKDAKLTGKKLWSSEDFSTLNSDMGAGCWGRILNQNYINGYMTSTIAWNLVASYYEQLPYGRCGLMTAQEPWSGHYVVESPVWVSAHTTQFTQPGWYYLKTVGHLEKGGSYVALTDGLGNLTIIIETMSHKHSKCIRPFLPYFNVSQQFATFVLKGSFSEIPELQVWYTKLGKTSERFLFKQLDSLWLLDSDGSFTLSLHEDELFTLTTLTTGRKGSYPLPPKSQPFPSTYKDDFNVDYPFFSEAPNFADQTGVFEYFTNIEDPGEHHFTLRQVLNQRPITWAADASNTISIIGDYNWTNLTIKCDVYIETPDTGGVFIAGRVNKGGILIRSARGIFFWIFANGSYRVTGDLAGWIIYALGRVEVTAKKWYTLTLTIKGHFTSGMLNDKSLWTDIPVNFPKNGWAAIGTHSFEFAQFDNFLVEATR

activation, inactive:
CCN(CC)S(=O)(=O)c1ccc2c(c1)N(CC(=O)NCc1ccc(F)cc1)C(=O)CO2 -14.3%, CN(C)c1ccc(C2CC(c3c(O)n(C4CCCCC4)c(=O)[nH]c3=O)=Nc3ccccc3S2)cc1 (stereo not given) 4.22%, CCCN1CCc2nc(SCC(=O)Nc3ccc(C)c(Cl)c3)[nH]c(=O)c2C1 -9.96%, COc1ccc(NC(=O)C2=C(C)Nc3c(C(=O)Nc4ccc(C)cc4)cnn3C2c2cc(OC)ccc2OC)cc1 (stereo not given) 2.57%, COc1cccc(NC(=O)Cn2c(=O)n(Cc3ccccc3)c(=O)c3c2c2cc(C)ccc2n3C)c1 -2.57%, COC(=O)c1ccc(NC(=O)CCn2cccn2)cc1 -13%, CCOc1ccc(C(=O)N2CCC(c3nc(-c4ccc(S(=O)(=O)N5CCCC5)cc4)no3)CC2)cc1 -12%, c1ccc(CSc2nnc(C3CCNCC3)o2)cc1 -10.6%, CCOc1ccc(NC(=O)N(Cc2ccc(CC)cc2)Cc2cn[nH]c2-c2ccc(OC)cc2)cc1 -9.43%, COc1cccc(Oc2nc3c(c(=O)n(Cc4ccccc4Cl)c(=O)n3C)n2C)c1 -24.3%, CCOc1ccc(-c2cc3c(=O)n(Cc4nc(-c5ccc(OC)cc5OC)oc4C)ccn3n2)cc1Cl 15.3%, O=c1[nH]c2ccc(NCc3ccc(-c4ccccc4F)o3)cc2[nH]1 -8.36%, Cc1ccc(C(C)C)c(OCC(=O)Nc2cccc(-c3nc4ncccc4o3)c2)c1 2.23%, CCOc1ccc(Cc2nccc3cc(OCC)c(OCC)cc23)cc1OCC -11.8%, COc1ccc(C(=O)N2CC(=O)Nc3ccc(C)cc3C2c2ccc(F)cc2)c(OC)c1 (stereo not given) -8.92%, CC(=O)Nc1ccc(S(=O)(=O)NC2=NCN(C(C)C)CN2)cc1 14.3%, COc1ccccc1NC(=O)c1nnn(-c2ccc(F)cc2)c1C -3.58%, Cc1cc(F)ccc1NC(=O)C(C(C)C)N1Cc2ccccc2C1=O (stereo not given) -13.8%, COc1ccc(CNC(=O)c2ccc3c(c2)N(Cc2ccccc2)C(=O)c2ccccc2S3=O)cc1 (stereo not given) 19%, CCC(=O)N1CCc2cc(Br)cc(S(=O)(=O)CCC(=O)NCCc3ccc(C)cc3)c21 -7.59%, Cc1ccc(Cl)cc1N1CCN(C(=O)Cc2c(C(=O)O)c(C)cn2C)CC1 -6.03%, Cc1sc2ncn(CC(=O)N3CCN(c4ccccc4F)CC3)c(=O)c2c1S(=O)(=O)N1CCN(c2ncccn2)CC1 -11.2%, CN(CC(=O)NCc1ccccc1Cl)S(=O)(=O)c1ccc2c(c1)c(=O)n(C)c(=O)n2C 5.73%, O=c1c(-c2cc(-c3ccc(Cl)cc3)nc3c2COc2ccccc2-3)coc2ccccc12 -6.1%, Cc1ccc(-c2cc(C(=O)N3CCN(S(=O)(=O)c4ccc(Br)s4)CC3)[nH]n2)cc1C -10.6%, C#C[C@]1(O)CC[C@H]2[C@@H]3CCC4=Cc5oncc5C[C@]4(C)[C@H]3CC[C@@]21C -7.89%, CCc1ccc(NC(=O)Cn2c(=O)n(Cc3ccc4c(c3)OCO4)c(=O)c3oc4ccccc4c32)cc1 -9.75%, Cc1cc(C)n2nc(NCc3ccccc3Cl)nc2n1 -7.59%, COc1ccc(CNc2nc(-c3ccco3)nn2S(=O)(=O)c2ccc3ccccc3c2)cc1OC -16.3%, Cc1ccc(C)c(NC(=O)Cn2c(=O)n(Cc3nc(C)no3)c(=O)c3cc4c(cc32)OCO4)c1 -2.94%, CCOc1ccccc1CN1C(=O)c2ccccc2C1C(=O)NC1CCCCCC1 (stereo not given) -30.1%, CCC(=O)N1CCc2cc(S(=O)(=O)NC(Cc3ccccc3)C(=O)NCc3ccc(C)cc3)ccc21 (stereo not given) -9.44%, COc1ccc(OCCn2cc(C(=O)c3ccco3)c3ccccc32)cc1 -22.8%, COc1cc(C(=O)NCc2nnnn2-c2ccc(C)c(C)c2)cc(OC)c1OC -9.68%, COC(=O)c1cc2occc2n1Cc1nc(-c2ccccc2C)oc1C -6.77%, Cc1ccc(-c2noc(CN(C3CCCCC3)S(=O)(=O)c3ccc(F)cc3)n2)cc1 -3.85%, CC(=O)Nc1ccc(NC(=O)CSc2cn(CC(=O)N(C(C)C)C(C)C)c3ccccc23)cc1 -5.99%, Cc1cc2oc(C(=O)NCCc3ccc(S(N)(=O)=O)cc3)cc(=O)c2cc1C -1.36%, O=c1c(-c2cc(-c3ccc(F)cc3)nc3c2COc2ccc(Cl)cc2-3)coc2ccc(F)cc12 -24.7%, CC(=O)N1c2ccc(S(=O)(=O)N3CCN(c4cc(Cl)ccc4C)CC3)cc2CC1C (stereo not given) -6.91%, CCC(C)Sc1nc2c([nH]c3ccccc32)c(=O)n1C (stereo not given) -10.6%, COc1ccc(-c2nc(C)c(CCNC(=O)c3ccco3)s2)cc1 -15.9%, CC(C)c1ccc(NC(=O)CSC2=Nc3ccccc3C3=NC(CCC(=O)NCc4ccc(F)cc4)C(=O)N23)cc1 (stereo not given) -20.2%, CCN1CCN(C(=O)c2ccc3c(c2)N(Cc2c(F)cccc2Cl)C(=O)c2ccccc2S3)CC1 -22.4%, Cc1ccccc1COC(=O)c1ccc(-c2nnn(Cc3ccccc3F)n2)cc1 -15.9%, COC(=O)c1ccc(CNC(=O)c2nc(Cn3nc(C)c(Br)c3C)no2)cc1 -23%, O=C(CSc1nc2c([nH]c3ccccc32)c(=O)n1-c1cccc(Cl)c1)NCc1ccccc1 10.6%, COc1cc2c(cc1OC)C(COc1cc(C)cc(C)c1)N(C(=O)c1ccc(S(=O)(=O)N3CCCC3)cc1)CC2 (stereo not given) -21.5%, O=C(CCCCCn1c(=O)[nH]c2ccccc2c1=O)N1CCN(c2ccc(Cl)cc2)CC1 -24.5%, Cc1ccc(C)c(-c2ccc(=O)n(Cc3ccc(F)cc3Cl)n2)c1 3.28%, O=C(COc1ccccc1)Nc1sc2c(c1C(=O)Nc1ccccc1)CCCCC2 -15%, CCOC(=O)C1CCCN(C(=O)Cn2ncc3c4ccccc4n(Cc4ccc(F)cc4)c3c2=O)C1 (stereo not given) -5.89%, CCc1nnc(NC(=O)CSc2nc3c([nH]c4ccccc43)c(=O)n2-c2ccc(C)cc2)s1 -0.114%, CCc1nc2ccc(C(=O)N3CCN(c4cccc(OC)c4)CC3)cc2nc1CC -13.9%, Cc1ccc2[nH]c(CSc3nnc(NC(=O)COc4ccccc4Cl)s3)cc(=O)c2c1 2.98%, CN(Cc1ccccc1)C(=O)Cn1c(=O)c2cccn2c2ccc(F)cc21 -2.57%, CCOC(=O)CNC(=O)CC(c1cc(OC)c(OC)c(OC)c1)N1Cc2ccccc2C1=O (stereo not given) -7.66%, CC(=O)SCC(CC(=O)c1ccc(C)cc1)C(=O)O (stereo not given) -20.1%, CCN(CC)c1ccc(C(=O)Nc2ccc3nc(N(CC)CC)cc(C)c3c2)cc1 -1.02%, O=S(=O)(NCC(c1ccco1)N1CCOCC1)c1ccc(Cl)cc1 (stereo not given) 14.8%, Cc1ccccc1NC(=O)C1CCN(S(=O)(=O)c2ccccc2)CC1 -5.53%, CCc1ccc(NC(=O)C2CCCN(S(=O)(=O)c3cccc4cccnc34)C2)cc1 (stereo not given) -21.5%, Cc1ccc(CNC(=O)c2sc3ncnc(N(C)C4CCCCC4)c3c2C)cc1 8.21%, CC(=O)c1cccc(-n2c(=O)c3c4c(sc3n(CC(=O)c3ccc(Cl)cc3)c2=O)CN(C(C)=O)CC4)c1 -6.27%, CC1CCCCN1C(=O)CSc1n[nH]c(-c2ccccc2)n1 (stereo not given) -13.7%, CCOc1cc(C(=O)Nc2ccc(-c3nc4cc(Cl)ccc4o3)cc2)cc(OCC)c1OCC -12.9%, Cc1cccc(C(=O)N(Cc2ccco2)Cc2ccccc2F)c1 7.8%, Cc1ccc(CCNC(=O)C2CC(=O)N(CCc3ccccc3)C2)cc1 (stereo not given) -12.5%, COc1ccc(CCNC(=O)c2ccc3c(c2)c(C)c(C)n3Cc2ccccc2)c(OC)c1OC -12.5%, CCc1nn(CCCC(=O)N2CCN(c3ccc(OC)cc3)CC2)c(=O)c2cc3occc3n12 -9.24%, O=C(Nc1cccc(Cl)c1)c1cc(-c2ccccc2)on1 24.4%, O=c1[nH]c(C2CCCN(S(=O)(=O)c3ccccc3Cl)C2)nc2c1nnn2Cc1ccc(OC(F)(F)F)cc1 (stereo not given) -13.2%, Cn1cc(C(=O)NCCc2ccc(Cl)cc2)c(=O)c2cc(S(=O)(=O)N3CCOCC3)ccc21 -12.1%, COc1ccc(CNC(=O)CCCc2nnc3n(CCC(C)C)c(=O)c4sccc4n23)cc1 -14.2%, Cc1cc(CC(=O)O)c(C)n1-c1ccc(Cl)cc1 -17.6%, O=C(Nc1nnc(S(=O)(=O)N2CCCCCC2)s1)c1cccc(Br)c1 -9.14%, COc1ccc(NC(=O)C2CCC(CNS(=O)(=O)c3ccc4c(c3)C(C)(C)C(=O)N4C)CC2)cc1 (stereo not given) -10%, Cc1cccc(N2CCN(C(=O)Cn3ncc4c3-c3ccccc3OC4)CC2)c1C -36.7%, CCOc1ccc(Nc2ncnc3c2nc2n3CCCCC2)cc1 -11.1%, COc1ccc(CNCCCSc2nnnn2C)c(OC)c1 -5.91%, CC(=O)c1ccc(NC(=O)c2nc(-c3ccccc3)n(-c3ccccc3Cl)n2)cc1 -18.9%, CCc1nnc(SCc2ccc(F)cc2Cl)c2cc3sc(C)cc3n12 8.44%, N#Cc1ccccc1Cn1c(SCC(=O)Nc2ccc(F)cc2)nc2ccccc21 -11.5%, CCOc1ccc(C(=O)Nc2onc3c2CCCC3)cc1 -5.85%, O=C(COc1ccccc1)Nc1ccc2nc(SCC(=O)N3CCc4ccccc43)sc2c1 1.37%, Cn1cnc(S(=O)(=O)N2CCC(C(=O)Nc3ccc(C#N)cc3)CC2)c1 -20%, Clc1cccc(N2CCN(c3c4c(nc5nncn35)CCC4)CC2)c1 -29.5%, Cc1nn(CC(=O)NCC(C)c2ccccc2)c(=O)c2cc3ccccc3n12 (stereo not given) -14.3%, CCOc1ccc(CNC(=O)C2CCN(S(=O)(=O)c3ccc4c(ccn4C)c3)CC2)cc1 -0.351%, COc1cccc(CNC(=O)CCn2c(=O)c3cccn3c3cccnc32)c1OC -3.1%, CCOC(=O)c1ccccc1NC(=O)c1ccc2c(Cl)c3c(nc2c1)CCC3 -3.14%, Cc1ccccc1NC(=O)CSc1cn(CC(=O)N2CCCC2)c2ccccc12 -16.8%, Cc1c(C(=O)Nc2ccc(-c3nc4cc(Cl)ccc4o3)cc2)oc2ccccc12 -4.47%, COc1ccc(N(C)C(=O)c2nc(-c3cccc(F)c3)n3c2CCCCC3)c(OC)c1 -12.6%, Cc1c(Cl)cccc1NC(=O)c1cc2sccc2n1Cc1ccc(F)cc1 -12.1%
